Laboratory results from the supplement of paper PMC4967469.

Tests used:
Assay in all cases: Viability of human cancer cell lines after 72 h of drug (GDSC screen)
[1] = compound: CC(=O)Nc1nc(C)c(-c2ccc(Cl)c(S(=O)(=O)NCCO)c2)s1 [PIK-93]; conditions: top dose 20 µM
Protocol: (§1)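 Human cancer cell lines in 384-well plates, medium with 10% serum, drug for 72 h over a 256-fold dose range (nine 2-fold or five 4-fold steps up to the top dose). Adherent lines were fixed and stained with the nucleic acid dye Syto60, suspension lines read with resazurin; signal relative to control wells, capped at 0 and 100%. One two-parameter sigmoid per drug and line, fitted in a mixed model over all curves with the slope shared within a line.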

[2] = compound: CC1(C)CCC(c2ccc(Cl)cc2)=C(CN2CCN(c3ccc(C(=O)NS(=O)(=O)c4ccc(N[C@H](CCN5CCOCC5)CSc5ccccc5)c(S(=O)(=O)C(F)(F)F)c4)cc3)CC2)C1 [ABT-263]; conditions: top dose 2 µM; top dose inferred
Protocol: as §1

[3] = compound: COc1cc(/C=C/C(=O)N2CCC=CC2=O)cc(OC)c1OC [piperlongumine]; conditions: top dose 10 µM
Protocol: as §1

[4] = compound: COc1cc2ncn(-c3cc(OCc4ccccc4C(F)(F)F)c(C(N)=O)s3)c2cc1OC [GW843682X]; conditions: top dose 0.256 µM
Protocol: as §1

[5] = compound: Cn1cc(/C=C2\C(=O)Nc3cccnc32)c2ccccc21 [GW 441756]; conditions: top dose 2 µM; top dose inferred
Protocol: as §1

[6] = compound: O=C(/C=C/c1ccccc1)NC(NC(=S)Nc1cccc2cccnc12)C(Cl)(Cl)Cl [Salubrinal]; conditions: top dose 16 µM; top dose inferred
Protocol: as §1

| Cell Line | AUC [1] | IC50 [1] | AUC [2] | IC50 [2] | AUC [3] | IC50 [3] | AUC [4] | IC50 [4] | AUC [5] | IC50 [5] | AUC [6] | IC50 [6] |
| --- | --- | --- | --- | --- | --- | --- | --- | --- | --- | --- | --- | --- |
| KE-37 (lymphoblastic leukaemia, suspension) | 0.122 | 127 nM | 0.302 | 40.6 nM | 0.849 | 4980 nM | 0.311 | 5.48 nM | 0.994 | > 2000 nM | 0.915 | 13600 nM |
| A101D (melanoma, adherent) | 0.747 | 7690 nM | 0.875 | > 2000 nM | 0.696 | 2550 nM | 0.488 | 14.8 nM | 0.946 | > 2000 nM | 0.853 | > 16000 nM |
| KARPAS-299 (anaplastic large cell lymphoma, suspension) | 0.911 | > 20000 nM | 0.985 | > 2000 nM | 0.804 | 4050 nM | 0.779 | 87 nM | 0.966 | > 2000 nM | 0.967 | > 16000 nM |
| SNU-C1 (large intestine, suspension) | 0.966 | > 20000 nM | 0.793 | 1440 nM | 0.887 | > 10000 nM | 0.864 | > 256 nM | 0.98 | > 2000 nM | 0.957 | > 16000 nM |
| H9 (lymphoid neoplasm, suspension) | 0.329 | 461 nM | 0.924 | > 2000 nM | 0.628 | 1310 nM | 0.633 | 34.7 nM | 0.973 | > 2000 nM | 0.939 | > 16000 nM |
| QIMR-WIL (acute myeloid leukaemia, suspension) | 0.343 | 464 nM | 0.497 | 123 nM | 0.805 | 4860 nM | 0.616 | 33 nM | 0.978 | > 2000 nM | 0.892 | > 16000 nM |
| SF268 (glioma, adherent) | 0.842 | 15600 nM | 0.97 | > 2000 nM | 0.751 | 3520 nM | 0.698 | 60.7 nM | 0.853 | 1750 nM | 0.958 | > 16000 nM |
| A3-KAW (B-cell lymphoma, suspension) | 0.693 | 3820 nM | 0.993 | > 2000 nM | 0.636 | 1360 nM | 0.677 | 44.4 nM | 0.993 | > 2000 nM | 0.853 | 8770 nM |
| ES8 (Ewing sarcoma, adherent) | 0.628 | 2740 nM | 0.761 | 661 nM | 0.643 | 1500 nM | 0.41 | 9.26 nM | 0.86 | 1480 nM | 0.841 | 9980 nM |
| LOUCY (T-cell lymphoblastic leukaemia, suspension) | 0.356 | 541 nM | 0.06 | < 7.81 nM | 0.758 | 2900 nM | 0.376 | 7.82 nM | 0.992 | > 2000 nM | 0.966 | > 16000 nM |
| KELLY (neuroblastoma, adherent) | 0.795 | 8330 nM | 0.936 | > 2000 nM | 0.767 | 3380 nM | 0.715 | 60.6 nM | 0.989 | > 2000 nM | 0.896 | > 16000 nM |
| EVSA-T (breast, adherent) | 0.662 | 3280 nM | 0.958 | > 2000 nM | 0.816 | 4550 nM | 0.865 | 174 nM | 0.989 | > 2000 nM | 0.881 | 12700 nM |
| SK-UT-1 (soft tissue, adherent) | 0.954 | > 20000 nM | 0.945 | > 2000 nM | 0.635 | 1420 nM | 0.557 | 22.6 nM | 0.986 | > 2000 nM | 0.882 | 14300 nM |
| SK-ES-1 (Ewing sarcoma, semi-adherent) | 0.588 | 2220 nM | 0.519 | 141 nM | 0.949 | > 10000 nM | 0.63 | 37.5 nM | 0.985 | > 2000 nM | 0.917 | > 16000 nM |
| BB49-HNC (head and neck, adherent) | 0.937 | > 20000 nM | 0.965 | > 2000 nM | 0.624 | 1580 nM | 0.848 | > 256 nM | 0.978 | > 2000 nM | 0.952 | > 16000 nM |
| HSC-39 (stomach, suspension) | 0.991 | > 20000 nM | 0.672 | 349 nM | 0.822 | 4830 nM | 0.688 | 49.4 nM | 0.877 | 1530 nM | 0.969 | > 16000 nM |
| JJN-3 (haematopoietic neoplasm, suspension) | 0.589 | 2090 nM | 0.819 | 884 nM | 0.679 | 1780 nM | 0.448 | 11.9 nM | 0.822 | 905 nM | 0.889 | 12500 nM |
| MC116 (B-cell lymphoma, suspension) | 0.508 | 1300 nM | 0.999 | > 2000 nM | 0.878 | 5180 nM | 0.657 | 38.1 nM | 0.999 | > 2000 nM | 0.767 | 4410 nM |

By IC50 is meant the dose at which the fit gives 50% viability; where the fit passes the top or lowest dose, that dose stands as a limit. AUC, from the same fit, is the share of area under the viability curve across the 256-fold dose range; values near 1 show little effect. For part of these data: Any top dose called inferred is not printed in the source and was worked back from the curve model.
